# In PubChem BioAssay AID720736 (The Scripps Research Institute Molecular Screening Center, 2013):
# Not every entry of the source has a single result; some have several. This is not the full list of results. There may be further records.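 How the source made its calls: active means growth inhibition of at least 50% in any replicate; inactive means growth inhibition below 50% in every replicate.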 The records of an entry repeat one measurement in other runs, samples, wells, individuals or studies. Marks in square brackets tell the records apart. A, B and so on number the origins entry by entry.
# Experiment: antiplasmodial activity in infected erythrocytes – cell-based, radiolabel, 3D7, RBCs, Set2, M18AAP inhibitor project, late-stage follow-up (AID 720736)
# Settings: P. falciparum 3D7 in RBCs, 3H-hypoxanthine incorporation, 48 h; run 1; at 10 µM; stronger effect = higher value
# In short: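 material = P. falciparum 3D7-infected RBCs | medium = hypoxanthine-free RPMI medium with 10% serum | timing = 48 h exposure, 37 °C, 5% O2/5% CO2/90% N2 | measured by = 3H-hypoxanthine uptake by beta counting | evaluation = % growth inhibition versus vehicle-treated parasites, background-subtracted | controls = vehicle-treated parasites and uninfected RBCs | repeats = triplicate wells per compound in one or two runs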
smiles,measurement,value
COc1ccc(CCN(C)c2c3ccccc3nc3ccccc23)cc1OC,growth inhibition,96% [sample A] and inactive: 0% [sample B] and inactive: 0% [sample C]
